The list shows a part of the results.
Biological target: Neu5Gc(b2-6)Gal(b1-4)GlcNAc
Test: glycan array binding signal (z-score within array); higher = stronger binding
Settings: glycan notation: IUPAC condensed, linker removed
How it was run: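 Columns mapping to the same glycan were averaged after glycan names were converted to IUPAC-condensed notation. The data come from 3228 arrays in the Consortium for Functional Glycomics database, limited to those with an available protein sequence. Binding is reported as a within-array Z-score averaged across arrays of one protein sequence and across linkers.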

B1: ECL (Erythrina cristagalli), Q6YD91 (protein)
chain: VETISFSFSEFEPGNNDLTLQGAAIITQSGVLQLTKINQNGMPAWDSTGRTLYTKPVHIWDMTTGTVASFETRFSFSIEQPYTRPLPADGLVFFMGPTKSKPAQGYGYLGVFNNSKQDNSYQTLAVEFDTFSNPWDPPQVPHIGIDVNSIRSIKTQPFQLDNGQVANVVIKYDASSKILLAVLVYPSSGAIYTIAEIVDVKQVLPEWVDVGLSGATGAQRDAAETHDVYSWSFHASLPETND
glycan array binding signal (z-score): -0.173

Source: the supplement of paper PMC8728848
